Measured values: the supplement of paper PMC3334620
Whole data set: some 33,000 sequences, median “E-score (-0.5 to 0.5)” near -0.056, cut for the highest 2% near 0.38. Some of the results follow.

The sequences below were run against Stb4 (UniProt P50104) (assay: PBM E-score (8-mer binding enrichment) (E-score (-0.5 to 0.5)); higher = stronger / more preferred TF binding; most listed sequences are background and not binding sites). Conditions: protein concentration: 200 nM; construct: GST-DNA-binding domain.
In short: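 Bound GST-tagged yeast transcription factors, applied at about 100-200 nM to double-stranded universal all-10-mer Agilent arrays, were detected with fluorescent anti-GST. Scans were normalised with masliner. A modified Wilcoxon-Mann-Whitney statistic, the E-score, was assigned to each ungapped eight-base word pooled with its reverse complement by the Universal PBM Analysis Suite.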

Sequence | PBM E-score
CCTGTGAG | -0.288
ACATTCTC | -0.0633
ACCCAGAC | 0.076
GCGTTACA | -0.0322
GCAGCAGA | -0.244
ATCTGTGG | -0.127
GCCCTGTA | -0.201
AGTACTTC | 0.117
GTTTTCTA | 0.0512
ATAATCCG | 0.295
GCAAAAAA | 0.137
ATTCCGGA | 0.405
GAAAAAGA | 0.0739
TATAATGA | -0.0464
CAGGAATC | -0.0371
CGTATCCC | -0.13
AGAACCAG | -0.0906
CGCACCAG | -0.0613
GGTTCAAA | 0.138
ATTAAGTG | -0.0009
GCGCCACC | -0.095
GCGCGGGA | 0.166
ATTTCATC | -0.0624
CAGACGCC | -0.127
ATTTGCAG | -0.0442

Sequence | PBM E-score
GCGTTCCA | -0.104
CCGCCCAA | 0.0632
AGGCGAAG | -0.162
CCTTGGCC | -0.199
CAACGCTC | -0.251
CAGAGGAG | -0.255
GCGTTTCC | 0.25
AGTCGTAG | -0.16
GCATATTA | -0.0183
AGCGTGAT | -0.0713
GTACGTCA | -0.143
TACAGGAA | 0.0531
CTACCTTA | -0.0673
ATGATTCG | 0.0336
GAGTTCTA | -0.185
CCTTTCAC | -0.119
ATTGGCCG | 0.18
AGGGGTGA | -0.407
CAAACGGG | 0.106
CTCGCTGA | -0.1
CCGCAGCG | 0.0883
GAACCGTA | 0.0316
GCGTAAAC | 0.079
ATAAAACG | 0.0566
ACTTTGGC | 0.123

Sequence | PBM E-score
ACTATCGA | -0.253
GGCACAAC | 0.039
CAAAGGTA | -0.0824
TGTTCCAA | -0.163
CCTCACAC | -0.293
ACTACTGC | -0.181
GTTCCTAA | -0.00986
ACATTGAC | -0.158
CCAACTCA | -0.0892
GCATGAGA | -0.241
CGAGCTCC | 0.188
CACATCTA | 0.0376
GTACCCAA | -0.0334
CAGAACCC | 0.0311
CTGCCCTC | -0.295
GACTAGTC | -0.224
AGTATACC | 0.0367
GCGACCAC | 0.0307
AGAACCGA | 0.288
AGGCGACA | -0.1
ATACATTA | -0.113
GATATGGA | 0.0856
AGGTTCGG | 0.403
ATCCGTGG | 0.345
AATCCGAA | 0.42

Sequence | PBM E-score
GCATTTCA | -0.0146
CAGGGAAA | -0.035
AAGCTGGC | -0.0422
AGACCGGC | 0.0653
AATGTCCC | 0.169
ACGTTCGC | -0.0823
TATGGACA | -0.156
CCATGAAC | 0.0534
AGAACGGC | 0.08
ACTGGCTC | -0.119
AATCAACG | 0.0384
CAGGTGCG | -0.117
AGTCGTGC | -0.13
AGGTCCCC | -0.123
ATGTTAGC | -0.116
AGTTGCAC | 0.0381
TAGTTAGA | -0.0831
ACTCAATC | -0.146
ACATGTTG | -0.0905
CCAAATCC | 0.0248
ACATTTCC | 0.141
GCGAGGGA | -0.129
GATTCAGC | -0.0491
CAATAATG | -0.129
TGAAGAAA | -0.0334

Sequence | PBM E-score
GAAGACAA | -0.0366
TCCTATAA | -0.222
GCCTAGAA | -0.0774
CTATCCGA | 0.469
CAGACTGG | -0.231
CCACATCC | 0.164
CAAAAATA | 0.124
GGTTGTAC | 0.132
GTCGAAAC | -0.0645
ATGAACGC | -0.171
GCCACGCC | -0.282
ATAGCGTC | -0.209
CTACAGGC | -0.0531
CACTTCGA | -0.0805
GGGTATTA | 0.248
ACCCGAAA | 0.435
ACGAGGTC | -0.278
GCGGGTAA | 0.325
AGCATTAT | -0.241
CATAGAGG | -0.245
GGCCGTAC | 0.115
CGTCATGA | -0.109
ATACCGAG | 0.377
AATTAGGC | -0.0154
CGTGAACA | -0.0865

Sequence | PBM E-score
ATATGTGC | 0.00479
CTCATTTC | -0.0307
ACTGGTAC | 0.148
ATTTGCCC | 0.124
CCTAATTA | -0.133
CCCCCATC | -0.104
AATCCGGC | 0.241
GTCCTTAA | -0.161
TAGGTCAA | -0.197
CGTAATAG | -0.16
ATAGTCTA | -0.0562
TCCGTCCA | 0.279
CCACCTGC | 0.0341
CAGTCATC | 0.0653
CGTACCGA | 0.334
CCTTTCTC | -0.266
CTGCATCC | 0.178
ACAAACAA | -0.0425
ATATATTC | 0.195
GTTTTGCA | -0.0786
GAGCTTCA | 0.0204
AGTTTCTG | -0.025
CGAACGAA | 0.0902
AGCTCTCA | -0.0992
CTAAGCAA | -0.171

Sequence | PBM E-score
GTTTAGTA | -0.181
AAGCTCTG | -0.268
ACGAATTG | -0.243
CAAGTTTA | -0.136
GCGGTTAC | 0.14
GATCGAAC | -0.148
CCCAGTGC | -0.0453
ACCACTCG | 0.113
CCCTCCTC | -0.053
GTAGTGGA | -0.116
AGTCTTTG | -0.165
AAATAAGT | -0.18
ATAGCAGC | -0.158
ACCCTAGC | -0.125
ATACATAC | -0.227
TAACAGCA | -0.0784
ACGGTTAG | 0.118
GCTGAGGA | -0.143
AATCCGAG | 0.407
AGGAATGC | -0.136
AACAGCAC | 0.151
CTTTGACC | -0.0346
TCTTTCAA | -0.0903
GGCCTTGA | -0.0254
GCATCGGA | 0.359

Sequence | PBM E-score
CGGATTCA | 0.19
ACGTACCA | -0.142
AATCTCTC | -0.0961
AAGAACCG | 0.252
CATCTCTA | -0.169
ACATTCCT | 0.0113
AGCCGAAC | 0.411
CCCCCAAG | -0.229
CCAGCACG | -0.0292
GCGGTTCA | -0.0793
GCAACCTA | -0.248
GACCGCAA | 0.151
CGCCGATC | 0.241
TGGGACAA | -0.203
GCCAAAAA | 0.0633
ATAAACAC | -0.118
ACGAACAG | -0.15
CACAAACC | -0.0992
ATGCACGA | -0.123
AACTACAT | -0.0449
CCTCCAGG | -0.191
ACTTCTAT | -0.262
CTCAGGAC | -0.188
ACATGGAG | -0.194
GAGCTCCA | -0.14

Sequence | PBM E-score
ACAAGTGT | -0.0567
ATAATTAA | 0.0829
AGCATCAC | -0.158
GCACCGCC | 0.0908
AGCAGGGC | -0.167
ACGATCTG | -0.128
CGCCCTGA | -0.185
CTGGTATC | -0.15
GCATGAAA | -0.101
GATCGGTA | 0.407
AAGACATT | -0.0502
AAACTCTT | -0.211
CTAGTGCC | 0.0204
GACAAGGA | -0.179
CCTTGGAA | -0.0789
GTGGCGGA | 0.137
AGGATACA | -0.261
AATCCGTC | 0.225
GAACGGGA | 0.282
ACCCAAGC | -0.152
CGAAGAAG | 0.0957
AGAAATCC | 0.114
AGGGATTA | -0.244
CCTGAGCA | -0.19
ACTACCAC | -0.121

Sequence | PBM E-score
AGTCTCAA | 0.0271
GAGTGGCA | 0.0169
ACTACCTG | 0.0335
GTACACAC | -0.0518
ACAAGGCA | -0.173
CAGCCACG | -0.0108
TGACTAAA | -0.201
CTTGATGA | 0.102
CTAAATAC | -0.0567
TGGGCCCA | -0.105
TAACCAAA | -0.057
AAAAGGCT | -0.0374
CCGACATA | 0.252
ACTAGGTA | -0.202
ACCGTCGA | -0.182
ATTGAGAA | -0.0694
GGCGTAAA | 0.1
CGTCGAAG | -0.0867
ACCTGTCG | 0.0699
AGTGGTAA | -0.138
CGTCCATC | 0.228
CGAAGATC | 0.101
AGGCTAAG | -0.199
CGATTACC | 0.177
CTTCGCTA | -0.109

Sequence | PBM E-score
AGACAAAT | -0.166
TCAGAGAA | -0.281
CATATAAG | -0.0888
ACCGTATC | 0.182
ACCTCACG | -0.061
GGTATCGA | -0.0245
CTAATGCC | -0.0126
AGAGGATG | -0.0042
AACACAGG | -0.0876
CGTGAACC | -0.079
CTTCGGTA | 0.383
AGTTCGAA | 0.00309
CACTGACC | 0.0448
GTAACAAA | 0.0122
CTCTCAAC | -0.219
GCCTCTTA | -0.201
GCTGTGCC | 0.184
CCAATAAG | -0.224
GAGCTACC | -0.0823
GAGAAGCC | 0.0273
TGCCCGAA | 0.161
GTATCCGA | 0.487
GAAGTCGC | 0.00355
CCACGGAA | 0.354
ACGCCTTA | -0.0552

Sequence | PBM E-score
CTTCATAA | -0.0934
AATACCGC | 0.146
CCACTAGG | -0.366
CATTGACC | -0.106
ACTTCCAT | 0.0787
GGGTCCTA | -0.0879
GGTCGCAC | -0.0458
CGACAACA | 0.0716
ATTTTCCA | -0.0573
TGATATAA | -0.0748
ATCCCCTG | -0.257
ACTGCTTG | -0.0295
ACTACAGA | 0.0725
CGTCAGTA | -0.16
AAAACGAG | -0.262
CCGGCGAG | 0.173
GAGGGAGC | -0.0555
AGGTTTAA | -0.0812
AGACTATC | -0.197
ATTCAGTG | 0.185
TAGGGAGA | -0.141
AGGCGTGC | -0.0495
AGCGCACG | 0.0198
ACAGTAGG | -0.105
GTCATCAC | -0.218

Sequence | PBM E-score
GCCTCTCC | -0.182
AATATTAG | -0.31
ATCGCGCA | -0.247
GAACACAA | -0.217
AAGCCATC | 0.0419
ATGCTGAA | -0.126
CAGCCGAC | 0.311
ATTAGTTA | 0.0511
CACGTCCA | -0.142
AGACCTGA | 0.00421
TCCTTAGA | -0.307
GGGCTAAC | -0.125
AACTCATC | 0.0713
CGGCGTGC | 0.0558
AGAATCAA | -0.0187
AACGGAAG | 0.284
CCGTTCAA | 0.113
GTAATCCA | -0.162
CACGCTAG | -0.0758
ACTCCATG | -0.0565
CCGAAACC | 0.395
AACACTGA | -0.073
GCAGAGCC | 0.0507
CTATTGCC | -0.0143
ATTTAGCA | -0.0745

Sequence | PBM E-score
TAGCAGAA | -0.148
AGGATGAG | -0.0883
TTCGAAAA | -0.157
AGGGAGAC | -0.207
CCTCTGGC | 0.0427
ACGTGGAA | -0.154
AAGTAGTA | -0.201
ATACTCCC | 0.2
CGCGAATC | -0.0602
ACCAAGAA | -0.0301
GTGCTACA | -0.432
GGATCCCC | 0.253
CATCTGCA | -0.144
CTTGGCCC | -0.174
AGCTTGTG | -0.247
GTTGCCCA | -0.0723
CGGACACG | 0.253
AACTGTAG | -0.305
AAGTATCC | 0.226
